# Source: the supplement of paper PMC8728848
# Some of the results follow.
# How the values were obtained:
# Assay in all cases: glycan array binding signal (z-score within array); higher = stronger binding
# Settings in all cases: glycan notation: IUPAC condensed, linker removed
# Gal(b1-4)Glc6S = target: Gal(b1-4)Glc6S
# Outline: (§1)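 The Consortium for Functional Glycomics database supplied 3228 glycan arrays, of which those lacking an available protein sequence were dropped. The binding signal, a within-array Z-score, was averaged across arrays of the same protein sequence and across linkers. Negative scores can be read as non-binding.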
# Gal(b1-4)GlcNAc = target: Gal(b1-4)GlcNAc
# Outline: as §1
# [1] = target: Gal(b1-4)GlcNAc(b1-2)Man(a1-3)[Gal(b1-4)GlcNAc(b1-2)Man(a1-6)]Man(b1-4)GlcNAc(b1-4)GlcNAc
# Outline: as §1
# [2] = target: Gal(b1-4)GlcNAc(b1-3)Gal(b1-4)Glc
# Outline: as §1
# [3] = target: Gal(b1-4)GlcNAc(b1-3)Gal(b1-4)GlcNAc
# Outline: as §1
# [4] = target: Gal(b1-4)GlcNAc(b1-3)Gal(b1-4)GlcNAc(b1-3)Gal(b1-4)GlcNAc
# Outline: as §1
# [5] = target: Gal(b1-4)GlcNAc(b1-3)Gal(b1-4)[Fuc(a1-3)]GlcNAc(b1-3)Gal(b1-4)[Fuc(a1-3)]GlcNAc
# Outline: as §1
# [6] = target: Gal(b1-4)GlcNAc(b1-3)GalNAc
# Outline: as §1
# [7] = target: Gal(b1-4)GlcNAc(b1-3)[Gal(b1-4)GlcNAc(b1-6)]GalNAc
# Outline: as §1
# [8] = target: Gal(b1-4)GlcNAc(b1-6)GalNAc
# Outline: as §1
# [9] = target: Gal(b1-4)GlcNAc(b1-6)[Gal(b1-3)]GalNAc
# Outline: as §1
# [10] = target: Gal(b1-4)GlcNAc(b1-6)[Gal(b1-3)]GlcNAc
# Outline: as §1
# Gal3S(b1-3)GalNAc = target: Gal3S(b1-3)GalNAc
# Outline: as §1
# Gal3S(b1-3)GlcNAc = target: Gal3S(b1-3)GlcNAc
# Outline: as §1
# [11] = target: Gal3S(b1-3)[Fuc(a1-4)]GlcNAc
# Outline: as §1
# Gal3S(b1-4)Glc = target: Gal3S(b1-4)Glc
# Outline: as §1
# Gal3S(b1-4)Glc6S = target: Gal3S(b1-4)Glc6S
# Outline: as §1
# Gal3S(b1-4)GlcNAc = target: Gal3S(b1-4)GlcNAc
# Outline: as §1
# Gal3S(b1-4)GlcNAc6S = target: Gal3S(b1-4)GlcNAc6S
# Outline: as §1
# Gal3S6S(b1-4)GlcNAc = target: Gal3S6S(b1-4)GlcNAc
# Outline: as §1
# Gal3S6S(b1-4)GlcNAc6S = target: Gal3S6S(b1-4)GlcNAc6S
# Outline: as §1
# Gal4S(b1-4)GlcNAc = target: Gal4S(b1-4)GlcNAc
# Outline: as §1
# Gal4S6S(b1-4)GlcNAc = target: Gal4S6S(b1-4)GlcNAc
# Outline: as §1
# Gal6S(b1-4)Glc = target: Gal6S(b1-4)Glc
# Outline: as §1
# Gal6S(b1-4)Glc6S = target: Gal6S(b1-4)Glc6S
# Outline: as §1
# Gal6S(b1-4)GlcNAc = target: Gal6S(b1-4)GlcNAc
# Outline: as §1
# GalNAc(a1-3)Gal = target: GalNAc(a1-3)Gal
# Outline: as §1
# GalNAc(a1-3)GalNAc = target: GalNAc(a1-3)GalNAc
# Outline: as §1
# [12] = target: GalNAc(b1-3)Gal(a1-4)Gal(b1-4)GlcNAc
# Outline: as §1
# GalNAc(b1-4)GlcNAc = target: GalNAc(b1-4)GlcNAc
# Outline: as §1
# Glc(a1-4)Glc = target: Glc(a1-4)Glc
# Outline: as §1
# Glc(a1-6)Glc(a1-6)Glc = target: Glc(a1-6)Glc(a1-6)Glc
# Outline: as §1
# Glc(b1-4)Glc = target: Glc(b1-4)Glc
# Outline: as §1
# Glc(b1-6)Glc = target: Glc(b1-6)Glc
# Outline: as §1
# GlcA(b1-3)Gal = target: GlcA(b1-3)Gal
# Outline: as §1
# GlcA(b1-6)Gal = target: GlcA(b1-6)Gal
# Outline: as §1
# [13] = target: GlcNAc(a1-3)Gal(b1-4)GlcNAc
# Outline: as §1
# [14] = target: GlcNAc(a1-6)Gal(b1-4)GlcNAc
# Outline: as §1
binder,measurement,setting,value
chitinase 3-like protein 2 (Homo sapiens) (protein) YKLVCYFTQWSQDRQEPGKFTPENIDPFLCSHLIYSFASIENNKVIIKDKSEVMLYQTINSLKTKNPKLKILLSIGGYLFGSKGFHPMVDSSTSRLEFINSIILFLRNHNFDGLDVSWIYPDQKENTHFTVLIHELAEAFQKDFTKSTKERLLLTAGVSAGRQMIDNSYQVEKLAKDLDFINLLSFDFHGSWEKPLITGHNSPLSKGWQDRGPSSYYNVEYAVGYWIHKGMPSEKVVMGIPTYGHSFTLASAETTVGAPASGPGAAGPITESSGFLAYYEICQFLKGAKITRLQDQQVPYAVKGNQWVGYDDVKSMETKVQFLKNLNLGGAMIWSIDMDDFTGKSCNQGPYPLVQAVKRSLGSL,glycan array binding signal (z-score),Gal(b1-4)Glc6S,-0.256
same,glycan array binding signal (z-score),Gal(b1-4)GlcNAc,-0.237
same,glycan array binding signal (z-score),[1],0.314
same,glycan array binding signal (z-score),[2],0.135
same,glycan array binding signal (z-score),[3],-0.202
same,glycan array binding signal (z-score),[4],-0.24
same,glycan array binding signal (z-score),[5],-0.183
same,glycan array binding signal (z-score),[6],-0.183
same,glycan array binding signal (z-score),[7],-0.138
same,glycan array binding signal (z-score),[8],-0.203
same,glycan array binding signal (z-score),[9],-0.283
same,glycan array binding signal (z-score),[10],-0.165
same,glycan array binding signal (z-score),Gal3S(b1-3)GalNAc,-0.147
same,glycan array binding signal (z-score),Gal3S(b1-3)GlcNAc,-0.006
same,glycan array binding signal (z-score),[11],-0.094
same,glycan array binding signal (z-score),Gal3S(b1-4)Glc,-0.212
same,glycan array binding signal (z-score),Gal3S(b1-4)Glc6S,-0.176
same,glycan array binding signal (z-score),Gal3S(b1-4)GlcNAc,-0.096
same,glycan array binding signal (z-score),Gal3S(b1-4)GlcNAc6S,-0.081
same,glycan array binding signal (z-score),Gal3S6S(b1-4)GlcNAc,-0.179
same,glycan array binding signal (z-score),Gal3S6S(b1-4)GlcNAc6S,-0.151
same,glycan array binding signal (z-score),Gal4S(b1-4)GlcNAc,-0.208
same,glycan array binding signal (z-score),Gal4S6S(b1-4)GlcNAc,-0.066
same,glycan array binding signal (z-score),Gal6S(b1-4)Glc,-0.062
same,glycan array binding signal (z-score),Gal6S(b1-4)Glc6S,0.079
same,glycan array binding signal (z-score),Gal6S(b1-4)GlcNAc,-0.211
same,glycan array binding signal (z-score),GalNAc(a1-3)Gal,-0.046
same,glycan array binding signal (z-score),GalNAc(a1-3)GalNAc,-0.205
same,glycan array binding signal (z-score),[12],-0.193
same,glycan array binding signal (z-score),GalNAc(b1-4)GlcNAc,2.63
same,glycan array binding signal (z-score),Glc(a1-4)Glc,-0.192
same,glycan array binding signal (z-score),Glc(a1-6)Glc(a1-6)Glc,-0.245
same,glycan array binding signal (z-score),Glc(b1-4)Glc,-0.25
same,glycan array binding signal (z-score),Glc(b1-6)Glc,-0.197
same,glycan array binding signal (z-score),GlcA(b1-3)Gal,-0.236
same,glycan array binding signal (z-score),GlcA(b1-6)Gal,-0.235
same,glycan array binding signal (z-score),[13],-0.271
same,glycan array binding signal (z-score),[14],-0.221
